From PubChem BioAssay (NCI)
Values joined by “and” are separate entries in the source; they are usually repeats but may differ in a detail not shown here. Equal entries are not always repeated.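 Dose response: 5 concentrations. Exposure: 48 h. Format: 96-well plates. Endpoint: linear interpolation; highest concentration if not reached. The concentration for 50% growth inhibition is given as GI50. Definition used: TGI = concentration required for complete inhibition of growth.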

System: NCI-H322M lung
Assay: NCI anticancer screen, dose series, 48 h

| SMILES | GI50 | TGI |
| --- | --- | --- |
| COc1ccc(C#Cc2ccccc2C#CCCCCO)cc1 | 18.2 µM | 36.5 µM |
| O=C(/C=C/c1ccc(B(O)O)cc1)/C=C/c1ccc(B(O)O)cc1 | 14.2 µM | 28 µM |
| COc1ccc(/C(=N/NC(N)=O)C2(O)C(=O)Nc3ccc([N+](=O)[O-])cc32)cc1 (stereo not drawn) | – | > 100 µM |
| CCOC(=O)c1cccc(NC(=O)CCl)c1 | – | 6.65 µM |
| Cn1cnc([N+](=O)[O-])c1Sc1nc2cc(Cl)c(F)cc2[nH]1 | – | > 100 µM |
| O=c1[nH]c(=O)n(C2CC(O)C(CO)O2)cc1I (stereo not drawn) | – | > 100 µM |
| N#C/C(=C\c1ccccc1O)C(N)=O | – | > 100 µM |
| COc1cc(C(=O)OCCCCCCCCCCC[P+](c2ccccc2)(c2ccccc2)c2ccccc2)ccc1O | 2.49 µM | 8.96 µM |
| C=C(CNC(=O)Nc1ccc(-c2ccccc2)cc1)c1ccc(C(=O)Nc2ccccc2N)cc1 | > 100 µM | > 100 µM |
| O=C(NCCCCCCCCNC(=O)c1cnc2ccccc2n1)c1cnc2ccccc2n1 | – | > 100 µM |
| C=C(C)[C@@H]1CC[C@]2(C(=O)O)CC[C@]3(C)[C@H](CC[C@@H]4[C@@]5(C)CC(=O)C(C)(C)[C@@H]5CC[C@]43C)[C@@H]12 | – | > 25 µM |
| Nc1nc(N)c2ncn(CC3CCC(CO)C3)c2n1 (stereo not drawn) | – | > 100 µM |
| COc1ccc2c(c1)C(=O)c1c-2n(CCCN)c(=O)c2ccccc12 | 0.0551 µM | 0.353 µM |
| Cc1c2cnccc2c(C)c2c1c1cc(C3OCCCO3)ccc1n2C | 0.35 µM | 2.64 µM |
| Nc1nc2c(=O)c3ccccc3sc2s1 | – | > 100 µM |
| Nc1nc(Cl)cc(NCC2(O)CC(CO)C2)n1 (stereo not drawn) | – | > 100 µM |
| C[N+]1(C)CCCC1C(=O)[O-] (stereo not drawn) | – | > 100 µM |
| O=C1c2ccccc2C(=O)N1n1c(Cc2ccccc2)n[nH]c1=O | – | > 100 µM |
| CCOC(=O)CCCn1nnc(C(=O)OCC)c1C(=O)OCC | – | > 100 µM |
| CC[n+]1cnc(N)c2c(-c3ccc(Cl)cc3)cn(-c3ccc(C)cc3)c21 | – | 28.6 µM |
| c1csc(-c2ccc(-c3ccc(-c4ccc(-c5cccs5)s4)s3)s2)c1 | – | > 100 µM |
| O=C1CSC2(CC(/C=C/c3ccccc3)=NN2c2cccc(S(=O)(=O)O)c2)N1c1nc2ccccc2s1 (stereo not drawn) | – | > 100 µM |
| CC1=NN(C(=O)c2ccccc2O)C(=O)/C1=C/c1ccc([N+](=O)[O-])cc1 | 2.88 µM | > 100 µM |

| SMILES | GI50 | TGI |
| --- | --- | --- |
| CCOc1cc2c(cc1O)/C(=N\N)C[C@@H]1[C@@H]2CC[C@]2(C)[C@@H](O)CC[C@@H]12 | – | > 100 µM |
| CCOc1ccccc1NC(=O)CCC(=O)OC | – | > 100 µM |
| COC1=CC(c2ccc[nH]2)=N/C1=C\c1[nH]c(C)c(C(=O)OCc2ccccc2)c1C | 0.697 µM | 87.5 µM |
| O=C1Oc2ccccc2C(=O)/C1=C/N1C(=O)N/C(=C\c2ccccc2O)C1=O | – | > 100 µM |
| O=C(O)CCCl | – | > 5000 µM |
| C1CC2=C(C1)[Se]C(=C1Sc3nsnc3S1)[Se]2 | – | > 100 µM |
| CO[C@H](C(=O)[C@@H](O)[C@@H](C)O)[C@@H]1Cc2cc3cc(O[C@H]4C[C@@H](O[C@H]5C[C@@H](O)[C@H](O)C(C)O5)[C@H](O)C(C)O4)c(C)c(O)c3c(O)c2C(=O)[C@H]1O[C@H]1C[C@@H](O[C@H]2C[C@@H](O[C@H]3C[C@@H](OC)[C@H](O)C(C)O3)[C@@H](O)C(C)O2)C(O)(O)C(C)O1 (stereo partly drawn) | 0.0918 µM | > 17.3 µM |
| N=C(c1ccccc1)N(c1ccccc1)c1ccccc1 | – | > 100 µM |
| COC(=O)[C@H](Cc1ccccc1)NC(=O)c1ccc(CNC(=O)/C=C/c2ccc(-c3ccccc3)cc2)cc1 | – | > 100 µM |
| O=S(=O)(Oc1ccc2oc3ccccc3c2c1-c1c(OS(=O)(=O)C(F)(F)F)ccc2oc3ccccc3c12)C(F)(F)F | – | > 100 µM |
| CCCCCCCCCCCOC(=S)NC(C)C | – | 98.3 µM |
| CCOC(=O)c1cn(-c2ccccc2)c(=S)n2c1nc1ccccc12 | – | > 100 µM |
| O=C(O)[C@H]1[C@@H](C2CCCCC2)O[C@@H](C2CCCCC2)O[C@H]1C(F)(F)F | – | 57.2 µM |
| O=C(O)CSCc1cccc2ccccc12 | – | > 100 µM |
| c1ccc(CNC2CC(NCc3ccccn3)CC(NCc3ccccn3)C2)nc1 (stereo not drawn) | 2.89 µM and 7.69 µM and 2.39 µM | 8.15 µM and 25 µM and 5.6 µM |
| CCC(C)[C@H](NC(=O)[C@H](Cc1ccccc1)NC(=O)N(CC)c1ccccc1)C(=O)N[C@@H](CC(C)C)C(=O)OC (stereo partly drawn) | – | > 100 µM |
| O=c1cc(CNC2CCCC2)[nH]c(=O)[nH]1 | – | > 100 µM |
| CCN(CC)CCNC(=O)c1ccccc1NC(=O)C(=O)Nc1ccccc1C(=O)NCCN(CC)CC | – | > 100 µM |
| Cc1cc(C)nc(NC(N)=NCCc2ccccc2)n1 | 2.59 µM | 15.3 µM |
| Cc1[nH]c2ncn(/N=C/c3ccccc3O)c(=N)c2c1Cc1ccccc1 | – | > 100 µM |
| COc1cc2c(/C=N\N=C(N)N)c(Cl)[nH]c2cc1C | 2.35 µM | 9.68 µM |
| COc1cc2c(cc1OCCCN1CCN(CCCOc3cc4c(cc3OC)C(=O)N3CCC[C@H]3C=N4)CC1)C=CC(C)(C)O2 | 1.48 µM | 2.87 µM |
| FC(F)(F)c1ccc(-c2nc(-c3nc4cc(Cl)c(Cl)cc4[nH]3)c3ccccn23)cc1 | 9.45 µM | > 100 µM |

| SMILES | GI50 | TGI |
| --- | --- | --- |
| CN(C)CCCOc1ccccc1NC1=C(Cl)C(=O)C(Nc2ccccc2OCCCN(C)C)=C(Cl)C1=O | 0.711 µM | 1.97 µM |
| C(=Nc1ccccc1)C1CCCC[N-]1.C(=Nc1ccccc1)C1CCCC[N-]1.[Cu+2].[O-][Cl+3]([O-])([O-])O (stereo not drawn) | 13.5 µM | 33.9 µM |
| COC(=O)[C@@H](NC(=O)NC(=O)NC(=O)CI)C(C)C | > 100 µM | > 100 µM |
| COc1cc2c(cc1O)C=NCC2 | – | > 100 µM |
| O=S(=O)(c1ccc(Br)cc1)n1c2ccc(Br)cc2c2nc3ccccc3nc21 | – | > 100 µM |
| CC1=CCC[C@@]2(C)C(CC[C@@H]2C(C)/C=C/C(C)C)c2ccc(cc2C(=O)O)C[C@@H](O)CC1 (stereo partly drawn) | – | 22.7 µM |
| O=[N+]([O-])c1ccc(Nc2ccccc2-c2ccccc2)c2nonc12 | 19.2 µM | > 85.5 µM |
| CN1CCN(c2ccc(C(=O)Nc3n[nH]c4ccc(Cc5cc(F)cc(F)c5)cc34)c(NC3CCOCC3)c2)CC1 | 2.73 µM and 1.75 µM | > 10 µM and 3.71 µM |
| O=C1c2c(F)c(F)c(F)c(F)c2SC2=NCCN12 | – | 30.7 µM |
| Cc1nc2ccc(CN(C)c3ccc(C(=O)N[C@@H](CCC(=O)O)C(=O)O)s3)cc2c(=O)[nH]1 | – | > 100 µM |
| COC(=O)C(=O)C(C(=O)Nc1cccc(C)c1C)C1Sc2ccccc2NC1=O (stereo not drawn) | – | > 25 µM |
| O=S(=O)(Nc1ncccn1)c1ccc(N=Nc2ccc(O)c3ncccc23)cc1 | 7.59 µM | 42.8 µM |
| C=CCC1OC(C)(C)Oc2ccc(OCOCCOC)cc21 (stereo not drawn) | – | > 100 µM |
| CCOC(=O)c1ccc(N=NN(C)C(=O)C(C)N)cc1 (stereo not drawn) | – | > 100 µM |
| CN1CCc2cc3c(cc2C1O)OCO3 (stereo not drawn) | 37 µM | > 63.7 µM |
| Cc1c2cc[nH]c(C(F)(F)F)c2cc2c1nc1ccccc12 | – | > 125 µM |
| Cc1c2cc[nH]c(=O)c2c(C)c2c1[nH]c1cc(OCCN3CCN(C)CC3)ccc12 | 0.713 µM | 9.9 µM |
| O=C(Nc1ccc(Cl)cc1Cl)c1ccc(NC2=C(Cl)C(=O)N(Cc3ccccc3)C2=O)cc1 | 70.2 µM | > 100 µM |
| Nc1nc(CCC(=O)Nc2cccc(C(F)(F)F)c2)cc(-c2cccc3ccccc23)n1 | – | > 100 µM |
| C=C(Cn1c(=O)c2ccccc2c2ccccc21)c1ccc(C(=O)Nc2ccccc2N)cc1 | > 70 µM | > 100 µM |
| NS(=O)(=O)c1ccc(NC(=O)c2ccc(NC3=C(Cl)C(=O)N(Cc4ccccc4)C3=O)cc2)cc1 | 32.8 µM | > 100 µM |
| O=C(c1ccccc1)c1ccc2c(c1)nc1n2C(c2c(Cl)cccc2Cl)SC1 (stereo not drawn) | – | > 100 µM |
